{
  "source": "PubChem BioAssay (Tox21)",
  "key": {"[1]": {"assay": "qHTS assay to identify small molecule antagonists of the estrogen receptor alpha (ER-alpha) signaling pathway using the BG1 cell line - cell viability counter screen (AID 743081);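 note: compound given together with 17beta-estradiol as the ER stimulus; potency is the fitted concentration of half-maximal effect; nearly all actives have a fitted effect of over 45% in size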", "details": "BG1Luc4E2 viability, CellTiter-Fluor, 22 h"}, "[2]": {"assay": "qHTS assay to identify aromatase inhibitors - cell viability counter screen (AID 743084);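 note: cells stimulated with testosterone during compound exposure; potency is the fitted concentration of half-maximal effect; nearly all actives have a fitted effect of over 55% in size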", "details": "MCF-7 aro ERE viability, CellTiter-Fluor, 24 h"}, "[3]": {"assay": "qHTS assay to identify small molecule agonists of the NFkB signaling pathway - cell viability counter screen (AID 1159515; calls by dose curve; note: nearly all actives have a fitted effect of over 55% in size; note: potency is the fitted concentration of half-maximal effect)", "details": "NFkB-bla ME-180 viability, CellTiter-Glo luminescence, 5 h; series mostly up to 61 µM", "procedure,_shortened": "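Read by CellTiter-Glo luminescence (30 min, room temperature) in the wells also used for the beta-lactamase FRET read. ME-180 NFkB-bla cells at 2,000 per well were plated overnight, then exposed to compound for 5 hr at 37 C.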"}, "[4]": {"assay": "qHTS assay for small molecule activators of the heat shock response signaling pathway - cell viability counter screen (AID 743209); note: potency is the fitted concentration of half-maximal effect; nearly all actives have a fitted effect of over 50% in size", "details": "HSE-bla HeLa viability, CellTiter-Glo luminescence, 5 h", "procedure,_shortened": "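Cytotoxicity counter screen run in the same wells as the heat-shock bla reporter assay: HeLa HSE-bla cells, 5 h compound exposure at 37 C, viability read by CellTiter-Glo luminescence.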"}, "[5]": {"assay": "qHTS assay to identify small molecule agonists of the peroxisome proliferator-activated receptor delta (PPARd) signaling pathway - cell viability counter screen (AID 743211); note: potency is the fitted concentration of half-maximal effect; nearly all actives have a fitted effect of over 55% in size", "details": "PPARd-bla HEK293H viability, CellTiter-Glo luminescence, 17 h", "procedure,_shortened": "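Tox21 library compounds, delivered in DMSO, were incubated 17 h with PPARd-bla HEK293H cells; cytotoxicity was taken from CellTiter-Glo luminescence read 30 min after reagent addition.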"}, "[6]": {"assay": "qHTS assay to identify small molecule antagonists of the farnesoid-X-receptor (FXR) signaling pathway - cell viability counter screen (AID 743221; active = well fitted cell-killing curve with a large enough effect in the repeat runs, not every such curve was filed as active; note: % is set by controls: 0 for no effect and ±100 for the full control effect; nearly all actives have a fitted effect of over 50% in size)", "details": "FXR-bla HEK293T viability, CellTiter-Glo luminescence, 16 h; at 81.1 µM (top of the series) unless noted", "procedure,_shortened": "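Cytotoxicity is taken from ATP luminescence (CellTiter-Glo, 30 min, room temperature) in FXR-bla HEK 293T cells previously incubated 16 h at 37 C with compound and chenodeoxycholic acid at 50 uM final.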"}, "[7]": {"assay": "qHTS assay to identify small molecule antagonists of the estrogen related receptor (ERR) signaling pathway from Tox21 library - cell viability counter screen (AID 1224834); note: potency is the fitted concentration of half-maximal effect; nearly all actives have a fitted effect of over 30% in size", "details": "ERR reporter cells viability, CellTiter-Fluor, 17.5 h", "procedure,_shortened": "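CellTiter-Fluor fluorescence, read after 30 min at 37 C, measures viability of ERR cells. Cells plated at 2,000/well and incubated 6 h before pin-tool compound addition, then exposed 17.5 hours at 37 C.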"}, "[8]": {"assay": "qHTS assay to identify small molecule antagonists of the estrogen receptor alpha (ER-alpha) signaling pathway using the BG1 cell line in the presence of 0.1 nM 17-beta-estradiol - cell viability counter screen (AID 1259241); note: nearly all actives have a fitted effect of over 40% in size; note: potency is the fitted concentration of half-maximal effect; for activity change, negative = cytotoxicity: % is set by controls: 0 for no effect and ±100 for the full control effect", "details": "VM7Luc4E2 (BG1) viability, CellTiter-Fluor protease, 22 h, 0.1 nM estradiol agonist added; series mostly up to 92.4 µM", "procedure,_shortened": "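Following 5 days in phenol red-free medium with charcoal-stripped serum, VM7Luc4E2 cells received test compounds alongside 0.1 nM 17beta-estradiol (final) at 37C for 22 hr. Live cells were then quantified via protease-substrate fluorescence.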"}, "[9]": {"assay": "qHTS assay to identify small molecule agonists of the estrogen receptor alpha (ER-alpha) signaling pathway in the presence of an antagonist - cell viability counter screen (AID 1259386); note: potency is the fitted concentration of half-maximal effect; nearly all actives have a fitted effect of over 30% in size", "details": "VM7Luc4E2 viability, CellTiter-Fluor fluorescence, 22 h", "procedure,_shortened": "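Compounds tested at 15 concentrations for 22 h at 37C alongside 10.0nM (final) ICI-182,780 antagonist, in VM7Luc4E2 cells grown in phenol red-free, charcoal-stripped medium. Viability read by CellTiter-Fluor fluorescence after 1 h reagent incubation.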"}, "[10]": {"assay": "qHTS assay to identify small molecule antagonists of the androgen receptor (AR) signaling pathway using the MDA cell line in the presence of 0.5 nM R1881 - cell viability counter screen (AID 1259242); note: potency is the fitted concentration of half-maximal effect; nearly all actives have a fitted effect of over 45% in size", "details": "MDA-kb2 viability, CellTiter-Fluor protease fluorescence, 16 h", "procedure,_shortened": "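Live-cell protease activity was measured by CellTiter-Fluor fluorescence after 30 min. Before that, MDA-kb2 MMTV-luciferase cells had 16 hr at 37C without CO2, exposed to test compounds and 0.5 nM R1881 final.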"}, "[11]": {"biological_target": "Androgen receptor (Homo sapiens) (UniProt P10275)", "sequence (P10275 whole entry, looked up)": "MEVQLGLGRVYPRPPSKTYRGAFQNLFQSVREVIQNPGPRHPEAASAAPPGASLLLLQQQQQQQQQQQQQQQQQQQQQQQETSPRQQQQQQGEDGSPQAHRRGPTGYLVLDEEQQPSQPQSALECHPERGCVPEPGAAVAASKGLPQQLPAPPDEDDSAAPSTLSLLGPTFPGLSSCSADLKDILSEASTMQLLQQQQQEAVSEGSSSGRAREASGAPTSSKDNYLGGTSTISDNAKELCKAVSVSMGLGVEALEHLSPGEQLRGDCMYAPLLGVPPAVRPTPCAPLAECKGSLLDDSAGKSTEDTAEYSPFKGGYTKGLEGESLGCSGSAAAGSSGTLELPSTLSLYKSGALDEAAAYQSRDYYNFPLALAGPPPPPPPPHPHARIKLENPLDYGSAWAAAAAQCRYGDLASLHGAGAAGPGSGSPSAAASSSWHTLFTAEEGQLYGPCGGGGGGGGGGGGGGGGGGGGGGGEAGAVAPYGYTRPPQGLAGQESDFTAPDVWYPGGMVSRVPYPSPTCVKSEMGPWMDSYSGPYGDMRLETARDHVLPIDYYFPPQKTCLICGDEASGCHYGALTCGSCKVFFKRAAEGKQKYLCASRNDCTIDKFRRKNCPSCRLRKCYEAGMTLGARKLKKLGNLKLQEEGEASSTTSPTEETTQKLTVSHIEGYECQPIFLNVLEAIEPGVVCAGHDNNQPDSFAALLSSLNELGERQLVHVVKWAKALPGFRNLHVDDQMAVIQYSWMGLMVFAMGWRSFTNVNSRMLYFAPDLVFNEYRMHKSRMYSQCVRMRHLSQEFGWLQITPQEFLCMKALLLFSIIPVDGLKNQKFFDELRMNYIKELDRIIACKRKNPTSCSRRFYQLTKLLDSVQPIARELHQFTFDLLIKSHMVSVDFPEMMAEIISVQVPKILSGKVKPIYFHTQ", "assay": "qHTS assay to identify small molecule antagonists of the androgen receptor (AR) signaling pathway using the MDA cell line in the presence of 0.5 nM R1881 (AID 1259243); note: potency is the fitted concentration of half-maximal effect; nearly all actives have a fitted effect of over 50% in size", "details": "MDA-kb2 MMTV-luciferase, R1881 0.5 nM, 16 h", "procedure,_shortened": "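Luminescent reporter readout (ONE-Glo, 30 min, room temperature) after 16 hr co-treatment of MDA-kb2 cells with test compounds and 0.5 nM R1881 final, at 37C without CO2. The MMTV-driven luciferase responds to both AR and GR.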"}, "[12]": {"assay": "qHTS assay to identify small molecule agonists of the androgen receptor (AR) signaling pathway in the presence of an antagonist - cell viability counter screen (AID 1259379); note: potency is the fitted concentration of half-maximal effect; nearly all actives have a fitted effect of over 25% in size", "details": "MDA-kb2 viability, CellTiter-Fluor, 16 h", "procedure,_shortened": "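Cytotoxicity counter-screen run in the same wells as the nilutamide-challenged (3.0 µM final) AR agonist assay in MDA-kb2 cells. Compounds tested at 15 concentrations for 16 h, 37 °C without CO2; CellTiter-Fluor fluorescence read.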"}, "[13]": {"assay": "qHTS assay to identify small molecule agonists of the estrogen receptor beta (ER-beta) signaling pathway - cell viability counter screen (AID 1259380); note: potency is the fitted concentration of half-maximal effect; nearly all actives have a fitted effect of over 30% in size", "details": "ER-beta-bla HEK293T viability, CellTiter-Glo luminescence, 16 h", "procedure,_shortened": "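Cell viability counter screen: CellTiter-Glo luminescence (30 min, room temperature) measured in the same wells as the beta-lactamase readout, after 16 hr compound exposure at 37C of ER-beta-bla HEK293T cells in 2% charcoal-stripped FBS medium.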"}},
  "note": "Where “and” joins values, the source holds several entries; their conditions need not be identical. Identical values can stand only once. For some assays here: What follows is the remainder of the data, with few or none of the hits. Inconclusive results are not listed. The list shows a part of the results, in another mix than the full data. A structure can be active in one record and inactive in another. Calls of active or inactive are those of the source. Unless noted, calls come from the whole dose curve; as a rule, active = well fitted curve in the direction sought with a large enough effect in the repeat runs; inconclusive = weak or mixed curves; inactive = no such curve, though single readings can be large; an effect the other way counts as inactive or inconclusive.",
  "data": [
    {"smiles": "CCC[CH2][Sn]([CH2]CCC)([CH2]CCC)[CH2]CCC", "values": [
      {"measurement": "Potency", "setting": "[1]", "result": "active: 13.7 µM"}
    ]},
    {"smiles": "CCCCCCCCCC(CC)c1ccc(S(=O)(=O)O)cc1", "note": "(configuration not stated)", "values": [
      {"measurement": "Potency", "setting": "[2]", "result": "active: 30.6 µM"},
      {"measurement": "Potency", "setting": "[3]", "result": "inactive and active: 15.5 µM"}
    ]},
    {"smiles": "CCOP(=O)(O)OCC", "note": "(tested in a mixture with another compound)", "values": [
      {"measurement": "Potency", "setting": "[4]", "result": "active: 19.3 µM"}
    ]},
    {"smiles": "C=CCC1=C(C)C(OC(=O)C2C(C=C(C)C)C2(C)C)CC1=O", "note": "(configuration not stated)", "values": [
      {"measurement": "Potency", "setting": "[5]", "result": "active: 23.2 µM"}
    ]},
    {"smiles": "COCCOCCO", "values": [
      {"measurement": "activity change, negative = cytotoxicity", "setting": "[6]", "result": "inactive: -4.94%"}
    ]},
    {"smiles": "O=C(CCl)CCl", "values": [
      {"measurement": "activity change, negative = cytotoxicity", "setting": "[6]", "result": "inactive: -5.07% [at 62.6 µM]"}
    ]},
    {"smiles": "CC(C)(C)CC(C)(C)c1ccc(O)cc1", "values": [
      {"measurement": "Potency", "setting": "[7]", "result": "active: 54.5 µM"}
    ]},
    {"smiles": "Oc1ccc(Cl)cc1Cc1ccccc1", "values": [
      {"measurement": "Potency", "setting": "[7]", "result": "active: 24.6 µM"}
    ]},
    {"smiles": "O=[N+]([O-])c1cc([N+](=O)[O-])c2ccccc2c1", "values": [
      {"measurement": "Potency", "setting": "[8]", "result": "inactive"}
    ]},
    {"smiles": "Oc1cc(Cl)ccc1Oc1ccc(Cl)cc1Cl", "values": [
      {"measurement": "Potency", "setting": "[8]", "result": "active: 62.6 µM"},
      {"measurement": "Potency", "setting": "[9]", "result": "active: 31.4 µM"}
    ]},
    {"smiles": "C=CCC1=C(C)[C@@H](OC(=O)[C@@H]2[C@@H](C=C(C)C)C2(C)C)CC1=O", "values": [
      {"measurement": "Potency", "setting": "[10]", "result": "active: 43.3 µM"}
    ]},
    {"smiles": "CC(C)Oc1cc(-n2nc(C(C)(C)C)oc2=O)c(Cl)cc1Cl", "values": [
      {"measurement": "Potency", "setting": "[11]", "result": "active: 67.6 µM"}
    ]},
    {"smiles": "Nc1ccc(N=Nc2ccccc2)cc1", "values": [
      {"measurement": "Potency", "setting": "[12]", "result": "active: 27.3 µM"}
    ]},
    {"smiles": "O=S1OCC2C(CO1)C1(Cl)C(Cl)=C(Cl)C2(Cl)C1(Cl)Cl", "note": "(configuration not stated)", "values": [
      {"measurement": "Potency", "setting": "[13]", "result": "active: 61.2 µM"}
    ]},
    {"smiles": "O=S(=O)(O)C(F)(F)C(F)(F)C(F)(F)C(F)(F)C(F)(F)C(F)(F)C(F)(F)C(F)(F)F", "values": [
      {"measurement": "Potency", "setting": "[13]", "result": "active: 15.4 µM"}
    ]}
  ]
}
